± gives the standard deviation of the averaged measurements. Whole data set: some 33,000 sequences, median “E-score (dimensionless, -0.5 to 0.5)” near -0.046, cut for the highest 2% near 0.36. Some of the results follow.
Tested on: T1, SpTbr T-box DNA-binding domain (GST fusion)
T1 sequence: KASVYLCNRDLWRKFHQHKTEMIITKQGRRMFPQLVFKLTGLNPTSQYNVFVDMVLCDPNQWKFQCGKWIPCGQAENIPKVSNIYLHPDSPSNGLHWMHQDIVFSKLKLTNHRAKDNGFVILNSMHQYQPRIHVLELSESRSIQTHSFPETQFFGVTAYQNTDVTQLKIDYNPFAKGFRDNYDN
Assay: PBM E-score of 8-mer (E-score (dimensionless, -0.5 to 0.5)); Tbr is Tbrain of the sea star Patiria miniata (Pm) or the sea urchin Strongylocentrotus purpuratus (Sp); higher = stronger binding preference; most listed sequences are background and not binding sites
Conditions: the construct has about 5 more residues each side
Outline: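 Expression of GST-fused Tbr T-box DNA-binding domains, each holding the full T-box plus roughly five flanking residues, was carried out in BL21 E. coli at 20 °C, with purification by glutathione affinity chromatography. Universal Agilent arrays made double-stranded by primer extension were incubated with the protein at 200 nM in PBS (pH 7.5), then scanned and quantified. All ungapped 8-mers were scored from probe intensities, and each received an enrichment E-score from the Universal PBM Analysis Suite, averaged over duplicate arrays.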

| Sequence | PBM E-score of 8-mer |
| --- | --- |
| CTTAATGC | -0.177 ± 0.047 |
| AAACAATT | -0.0761 ± 0.074 |
| AAACGGTG | 0.0251 ± 0.011 |
| TACGCCCA | -0.11 ± 0.0035 |
| CGGTATAG | -0.097 ± 0.088 |
| CATCCTTC | -0.101 ± 0.069 |
| AACAATAT | -0.0193 ± 0.039 |
| CACCGGAG | 0.0642 ± 0.062 |
| AGGGGAGC | -0.237 ± 0.052 |
| ACAAACCC | -0.179 ± 0.0032 |
| GGACGGCC | -0.153 ± 0.1 |
| CTAATTAA | -0.242 ± 0.042 |
| AGTCGCCG | -0.117 ± 0.074 |
| AAGTTGTC | 0.256 ± 0.028 |
| CAGCTCGA | 0.147 ± 0.0096 |
| GAAATCAC | 0.192 ± 0.037 |
| AAAATTCT | -0.0361 ± 0.048 |
| CTGTTCCC | -0.019 ± 0.069 |
| CGGGGATC | -0.123 ± 0.05 |
| AGTACACG | 0.00987 ± 0.041 |
| AGAAACGG | -0.189 ± 0.042 |
| GCTGATTA | -0.132 ± 0.037 |
| GACGCGTA | 0.0663 ± 0.0082 |
| GGTAACAA | 0.247 ± 0.012 |
| CATACTAC | -0.0976 ± 0.021 |

| Sequence | PBM E-score of 8-mer |
| --- | --- |
| TACCTGCA | -0.118 ± 0.035 |
| CACTCGGA | 0.249 ± 0.012 |
| ACCCCGCT | 0.0349 ± 0.028 |
| CCAGTTGA | 0.0132 ± 0.086 |
| GAGAAAGC | 0.0719 ± 0.029 |
| GATAGATC | -0.142 ± 0.094 |
| ACTCCTGA | 0.00336 ± 0.0024 |
| AACCACGT | -0.161 ± 0.017 |
| AATCATAA | 0.0363 ± 0.0088 |
| ATGTGGTC | 0.00071 ± 0.051 |
| TAAGTGCA | -0.0231 ± 0.017 |
| CCGCTACC | 0.162 ± 0.04 |
| AGACACTA | 0.0382 ± 0.064 |
| ACCCAAAT | -0.11 ± 0.019 |
| GATAGGGA | -0.0798 ± 0.014 |
| GGATGCTA | -0.128 ± 0.03 |
| ATGTCCCA | -0.236 ± 0.1 |
| ATTCCAAG | -0.131 ± 0.023 |
| GGAGCGAC | 0.0869 ± 0.044 |
| CGTTGGGC | -0.255 ± 0.022 |
| GAACTCTA | -0.0304 ± 0.00088 |
| AGGCTGAT | 0.00111 ± 0.036 |
| CCAAAAAA | -0.105 ± 0.04 |
| GCTCCCCC | -0.253 ± 0.042 |
| CATACGTA | -0.0534 ± 0.065 |

| Sequence | PBM E-score of 8-mer |
| --- | --- |
| GTGATCTA | -0.00772 ± 0.032 |
| ACCACATA | 0.12 ± 0.054 |
| ACGCATCG | 0.1 ± 0.02 |
| GAACGTAC | -0.164 ± 0.079 |
| ATAACTCA | -0.109 ± 0.031 |
| CTCTTTAA | -0.226 ± 0.052 |
| ACTCTTGA | -0.0835 ± 0.065 |
| GGGCATAA | -0.0846 ± 0.036 |
| TCAATTAA | -0.167 ± 0.1 |
| AGGGTAAG | -0.3979 ± 0.0024 |
| TAAACGCA | -0.0398 ± 0.064 |
| AGATGAAT | -0.1194 ± 0.0011 |
| TCCCACGA | 0.0602 ± 0.014 |
| CCGGACTA | -0.186 ± 0.041 |
| GCTAGGTA | -0.182 ± 0.013 |
| AAAAACGT | 0.00213 ± 0.02 |
| AGGCTTAC | -0.0946 ± 0.046 |
| CGGCATAC | -0.293 ± 0.055 |
| CACACGAC | 0.2 ± 0.045 |
| AAGTTGTG | 0.311 ± 0.011 |
| AACAAATA | 0.0575 ± 0.067 |
| ATTACACG | 0.215 ± 0.035 |
| GAACTTCA | -0.0825 ± 0.021 |
| GGTGTCAA | 0.4808 ± 0.0038 |
| AGTGCCGA | 0.103 ± 0.067 |

| Sequence | PBM E-score of 8-mer |
| --- | --- |
| GAGATAGC | 0.0812 ± 0.017 |
| CAGAGTTC | -0.129 ± 0.032 |
| CCCGCTAG | -0.0374 ± 0.13 |
| GCTAAAAC | 0.127 ± 0.022 |
| CGCCTCAC | 0.291 ± 0.026 |
| CTAGCCTA | -0.0689 ± 0.022 |
| CCTGACGA | 0.0968 ± 0.077 |
| CGCCCTTC | 0.0465 ± 0.00081 |
| AGGACGGG | -0.229 ± 0.039 |
| TAGCGTAA | 0.126 ± 0.021 |
| CTCTGCGC | 0.04597 ± 0.00011 |
| AGTATTGC | -0.171 ± 0.047 |
| GGTACAAC | -0.144 ± 0.015 |
| GAATTTCA | 0.056 ± 0.018 |
| CTCATTGC | -0.186 ± 0.051 |
| CCAGGCAC | -0.105 ± 0.066 |
| CCCTCTCG | 0.0788 ± 0.023 |
| CAACCAAC | 0.0184 ± 0.043 |
| TTCGGAAA | -0.161 ± 0.05 |
| ATTAGATA | -0.141 ± 0.046 |
| AGCCTCCA | -0.0984 ± 0.049 |
| TGAGGGCA | -0.126 ± 0.033 |
| GGGTCAAC | -0.0066 ± 0.041 |
| ACATCTAC | 0.0904 ± 0.031 |
| GGGTTCGA | -0.0443 ± 0.0019 |

| Sequence | PBM E-score of 8-mer |
| --- | --- |
| GCAGTTAA | -0.0809 ± 0.016 |
| TCCTACCA | -0.0283 ± 0.018 |
| ATTCCTTG | 0.115 ± 0.025 |
| GAAGGAAA | -0.112 ± 0.051 |
| AATATCCC | -0.155 ± 0.034 |
| ATTAGGGC | -0.2202 ± 0.002 |
| CAAATGCG | 0.0347 ± 0.021 |
| ATTGAACC | -0.169 ± 0.0091 |
| AGCCGCAC | 0.195 ± 0.061 |
| AACGTCAG | -0.218 ± 0.022 |
| CATCGTTC | -0.149 ± 0.11 |
| AACGCTGT | 0.042 ± 0.051 |
| GATCCAGC | -0.175 ± 0.0069 |
| ATTCTGGC | -0.104 ± 0.0095 |
| AAAGAAAC | -0.184 ± 0.096 |
| AAAAATCC | -0.0936 ± 0.053 |
| ATGAGCAC | -0.14 ± 0.0091 |
| ACGTGAAG | 0.141 ± 0.041 |
| CCACGTAC | -0.00917 ± 0.0088 |
| CAGCGAGA | 0.00192 ± 0.0009 |
| AGCTATAA | -0.1776 ± 0.0012 |
| CGGGGAAG | -0.206 ± 0.038 |
| CCAAGACC | -0.22 ± 0.035 |
| ATCGTTCA | -0.268 ± 0.011 |
| AGATATAA | -0.047 ± 0.063 |

| Sequence | PBM E-score of 8-mer |
| --- | --- |
| CTTTTTCA | -0.006 ± 0.059 |
| CTAAAGAC | -0.122 ± 0.017 |
| ACTGATTG | -0.0426 ± 0.025 |
| AACCTATT | -0.0497 ± 0.063 |
| AGGGAACG | -0.0114 ± 0.11 |
| CCCTAAGA | -0.255 ± 0.045 |
| ATCCACCC | 0.0342 ± 0.026 |
| TCAGTGAA | -0.00525 ± 0.015 |
| ACCTGGCG | 0.261 ± 0.028 |
| CCATGATC | -0.148 ± 0.008 |
| GGCCTAAC | -0.0491 ± 0.032 |
| CAACTGCC | 0.202 ± 0.01 |
| GCTAGGGA | -0.0791 ± 0.072 |
| TAACCGGA | -0.0629 ± 0.014 |
| CACTACAC | 0.153 ± 0.06 |
| CGTTTGGA | -0.0006 ± 0.068 |
| CTTTGGCC | -0.221 ± 0.031 |
| CGGGCATA | -0.162 ± 0.07 |
| AAGCTGCG | 0.0852 ± 0.04 |
| AATGAGAC | 0.0249 ± 0.11 |
| TCAACCAA | -0.0454 ± 0.0034 |
| ACCTTGAT | 0.044 ± 0.087 |
| TGATGTAA | -0.155 ± 0.033 |
| GTGGTTCA | -0.0511 ± 0.085 |
| GAGTAAAC | -0.0192 ± 0.019 |

| Sequence | PBM E-score of 8-mer |
| --- | --- |
| ATTACGTA | -0.174 ± 0.043 |
| GTTAGAAC | 0.00874 ± 0.049 |
| AGCTCGGG | -0.278 ± 0.035 |
| AATCAGTA | -0.167 ± 0.033 |
| GCGATGTA | 0.128 ± 0.011 |
| AGTACCAG | -0.131 ± 0.05 |
| AGTCTGTG | -0.0866 ± 0.072 |
| GGACGTGA | 0.222 ± 0.0016 |
| ACCTCTGC | 0.0995 ± 0.071 |
| AATGCTTC | -0.0707 ± 0.0038 |
| CAAACCTA | -0.166 ± 0.047 |
| AGCATTCC | 0.034 ± 0.0043 |
| CTTTTTTA | -0.153 ± 0.054 |
| CAACATAG | -0.0982 ± 0.027 |
| ACCTACTA | 0.17 ± 0.057 |
| TTACCGAA | -0.114 ± 0.0049 |
| TGATATCA | 0.213 ± 0.018 |
| ATTATGCG | -0.179 ± 0.0042 |
| ATAGGATC | -0.234 ± 0.07 |
| ACTGTGAG | 0.269 ± 0.031 |
| CTATCACA | 0.347 ± 0.013 |
| GCTTACCA | -0.03002 ± 0.00015 |

From the supplement of paper PMC4166925
